Source: PubChem BioAssay AID504845 (National Center for Advancing Translational Sciences (NCATS), 2011)
Values joined by “and” are separate entries in the source; they are usually repeats but may differ in a detail not shown here. Equal entries are not always repeated. The whole screen tested about 390,000 compounds, of which about 150 (0.038%) were called active. The shares of active, inactive and inconclusive entries below differ from those in the screen. The call rests on the fitted dose curve; in most records, active means well fitted inhibition curve with a large enough effect; inconclusive means small, poorly fitted or top-dose-only effect; inactive means no such curve, though single readings can be large or run the other way. Potencies beside an inconclusive call are fits to weak or partial responses and may not hold up.

biological target: Regulator of G-protein signaling 4 (Homo sapiens) (UniProt P49798); test: Inhibitors of Regulator of G Protein Signaling (RGS) 4: qHTS; settings: Transcreener GDP fluorescence polarization, RGS4-accelerated GTP hydrolysis; series mostly up to 114 µM; activity change, negative = inhibition: at the top concentration; further: nearly all actives have a fitted effect of over 75% in size
In short: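 MLSMR compounds (23 nl, pin-transferred) preincubated 10 min at room temperature with a 500nM (2x) first reagent, then RGS4 at 900nM (2x) plus Transcreener GDP mix added; fluorescence polarization (620/688 nm) read before and after 90 min at 30 °C.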
On the % scale 0 is the no-effect control and ±100 the full control effect; potency means the concentration at half of the fitted maximal effect; tags describe the fitted curve by direction and shape.

Chain of UniProt P49798 (P49798 whole entry, looked up): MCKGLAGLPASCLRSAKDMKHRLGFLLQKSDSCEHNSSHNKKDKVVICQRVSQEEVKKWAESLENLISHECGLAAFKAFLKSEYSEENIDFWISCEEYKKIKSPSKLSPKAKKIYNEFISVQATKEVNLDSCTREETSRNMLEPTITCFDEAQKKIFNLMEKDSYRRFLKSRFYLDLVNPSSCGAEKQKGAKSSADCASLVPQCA

Row | Structure (SMILES) | Potency | activity change, negative = inhibition
1 | CN(C)c1ccc(Cc2cc3c(O)ccc(O)c3cc(Cc3ccc(N(C)C)cc3)c2=O)cc1 | inconclusive: 10 µM [inhibitor, full curve, poor fit] | 
2 | COC(=O)c1sccc1S(=O)(=O)N(CC(=O)NCc1ccc(F)cc1)c1ccc(Cl)cc1 |  | inactive: -4.91%
3 | O=C(Nc1ccc(NC(=O)c2ccccc2)nc1)c1ccncc1 | inconclusive: 35.5 µM [inhibitor, full curve, poor fit] | 
4 | CSc1ccc(Cl)c(C(=O)NCCOc2ccccc2)c1 | inconclusive: 89.1 µM [inhibitor, single point] | 
5 | Cc1cc(NC(=O)c2cc(-c3cccs3)nc3ccccc23)no1 |  | inactive: -3.62%
6 | Cn1c2ccccc2c2nnc(SCC(=O)Nc3cccc(C(=O)O)c3)nc21 | inconclusive: 79.4 µM [inhibitor, partial curve, poor fit] | 
7 | O=C(/C=C/c1ccccc1Cl)Nn1cnc2ccccc2c1=O | inconclusive: 31.6 µM [inhibitor, full curve, poor fit] | 
8 | O=C(CSc1ncccc1-c1nc2ccccc2[nH]1)NCc1ccco1 |  | inactive: -32.5%
9 | OCc1cccc[n+]1CCc1ccccc1 |  | inactive: -45.1%
10 | O=C(NC1CCN(Cc2ccccc2)CC1)c1cncc(Br)c1 |  | inactive: -17.5%
11 | CCN(CC)S(=O)(=O)c1cc(NC(=O)c2ccc3c(c2)NC(=O)C(C)S3)ccc1C (stereo not drawn) | inconclusive: 31.6 µM [inhibitor, full curve, poor fit] | 
12 | Cn1nnc2c(N3CCN(c4cccc(C(F)(F)F)c4)CC3)ncnc21 |  | inactive: 4.32%
13 | C=C(CN(C)C)C(=O)c1ccc(C)cc1C | inconclusive: 31.6 µM [inhibitor, full curve, poor fit] | 
14 | CC(C)(C)C1CCC2(CC1)NC(=S)N(c1ccccc1)N2 (stereo not drawn) | inconclusive: 20 µM [inhibitor, full curve, poor fit] | 
15 | CC1Cc2ccccc2N1CC(=O)Nc1ccc2c(c1)OCCCO2 (stereo not drawn) |  | inactive: 8.82%
16 | C/C(=N/NC(N)=S)c1ccccc1[N+](=O)[O-] | inconclusive: 100 µM [inhibitor, partial curve, poor fit] | 
17 | CCOC(=O)c1c(NC(=O)c2noc3c2CC(C(C)(C)C)CC3)sc2c1CCCC2 (stereo not drawn) | inconclusive: 50.1 µM [inhibitor, partial curve, poor fit] | 
18 | COc1ccc(C2c3[nH]c4ccccc4c3C[C@H]3C(=O)N(C4CCN(Cc5ccccc5)CC4)CC(=O)N23)c(OC)c1 (stereo partly drawn) | inconclusive: 100 µM [inhibitor, single point] | 
19 | COc1cccc(/C=N/NC(=S)Nc2cccc(S(=O)(=O)N(C)C)c2)c1 | inconclusive: 31.6 µM [inhibitor, full curve, poor fit] | 
20 | O=C(Nc1cc2c3c(c1)C1CCCC1CN3CC1CCCC21)c1ccccc1 (stereo not drawn) | inconclusive: 44.7 µM [inhibitor, partial curve, poor fit] | 
21 | CC(=O)Nc1ccc(C=NN=C2c3ccccc3-c3ccccc32)cc1 | inconclusive: 79.4 µM [inhibitor, single point] | 
22 | CC(C)CCN1NC2(CCC(C)CC2)NC1=S (stereo not drawn) | inconclusive: 50.1 µM [inhibitor, partial curve, poor fit] | 
23 | CCOC(=O)C1CCN(C(=O)c2sc3nc(-c4ccccc4)cn3c2C)CC1 | inconclusive: 89.1 µM [inhibitor, single point] | 

Row | Structure (SMILES) | Potency | activity change, negative = inhibition
24 | COc1cc2c(cc1OC)-c1n[nH]c(=S)n1C(C)(C)C2 | inconclusive: 89.1 µM [inhibitor, single point] | 
25 | CSc1ccc(/C=N/n2c(COc3ccccc3)n[nH]c2=S)cc1 | inconclusive: 79.4 µM [inhibitor, partial curve, poor fit] | 
26 | CC(=O)c1cccc(-n2c(CCC(=O)O)ccc2-c2cccs2)c1 | inconclusive: 17.8 µM [inhibitor, full curve, poor fit] | 
27 | O=C(CCNC(=O)c1ccco1)Nc1ccc(C(F)(F)F)cc1 | inconclusive: 89.1 µM [inhibitor, single point] | 
28 | CCCn1c(CCC(=O)O)ccc1-c1ccccc1 | inconclusive: 31.6 µM [inhibitor, full curve, poor fit] | 
29 | COCCn1c(SCC(=O)Nc2ccc(F)c(Cl)c2)nc2c(oc3ccccc32)c1=O |  | inactive: -0.933%
30 | CC(=O)c1ccc(Nc2nc(-c3cccnc3)cs2)cc1 |  | inactive: -15.3%
31 | O=S(=O)(c1ccccc1)N1CCN(c2ncnc3scc(-c4ccccc4)c23)CC1 | inconclusive: 79.4 µM [inhibitor, partial curve, poor fit] | 
32 | CC(C)Oc1ccc(C(=O)/C(=C\c2cccs2)c2nc3ccccc3o2)cc1 |  | inactive: -17.8%
33 | Cc1ccc(NS(=O)(=O)c2ccc(OCC(=O)Nc3cccc([N+](=O)[O-])c3)c(C)c2)cc1 |  | inactive: -12.3%
34 | CCOC(=O)N1CCN(C(=O)Nc2ccc3nc(C)c(C)nc3c2)CC1 |  | inactive: -20.9%
35 | CCCn1c(C(C)Nc2nc(-c3cc(Cl)c(N)c(Cl)c3)cs2)nc2cc(Cl)c(N3CCCCC3)cc21 (stereo not drawn) | inconclusive: 89.1 µM [inhibitor, single point] | 
36 | O=C1/C(=C/c2ccccc2)CCc2ccc(Cl)nc21 | inconclusive: 89.1 µM [inhibitor, partial curve, poor fit] | 
37 | COc1ccc(CN2[C@@H](CC(=O)O)c3cc(C(F)(F)F)ccc3S2(=O)=O)cc1 |  | inactive: 10.8%
38 | COC(=O)c1scc(S(C)(=O)=O)c1-n1cccc1 | inconclusive: 35.5 µM [inhibitor, partial curve, poor fit] | 
39 | O=C(NCCCc1ccccc1)C(=O)NCC1OCCN1S(=O)(=O)c1ccc(F)cc1 (stereo not drawn) | inconclusive: 89.1 µM [inhibitor, single point] | 
40 | CO/S(=N\S(=O)(=O)c1ccc(Cl)cc1)c1ccc([N+](=O)[O-])cc1 (stereo not drawn) | active: 11.9 µM | 
41 | C=C1CC[C@H](O)C/C1=C/C=C1\CCC[C@]2(C)C([C@H](C)CCCC(C)(C)O)CC[C@@H]12 (stereo partly drawn) | inconclusive: 0.474 µM [inhibitor, partial curve, poor fit] | 
42 | Cc1ccc(C)c(NC(=O)CSc2cn(CC(=O)N3CCCC3)c3ccccc23)c1 |  | inactive: -2.13%
43 | COc1ccccc1N1CCN(CCCCN2C(=O)C3CCCCN3C2=O)CC1 (stereo not drawn) | inconclusive: 50.1 µM [inhibitor, partial curve, poor fit] | 
44 | O=C(N/N=C/C(Cl)=C/c1ccccc1)c1ccco1 | inconclusive: 50.1 µM [inhibitor, partial curve, poor fit] | 
45 | COc1ccc(NC(=O)Nc2cccc(OC)c2)cc1 |  | inactive: 5.32%
46 | CCCCCCCCCC(=O)N/N=C(\C)c1cccnc1 | inconclusive: 79.4 µM [inhibitor, partial curve, poor fit] | 

Row | Structure (SMILES) | Potency | activity change, negative = inhibition
47 | c1ccc(-c2ccc(-c3cnc4n3CCCCC4)cc2)cc1 |  | inactive: -6.22%
48 | Cn1nnnc1SCC(=O)c1cccs1 | inconclusive: 28.2 µM [inhibitor, full curve, poor fit] | 
49 | COCCN(CC(=O)NCC1CCCO1)C(=O)CCC(=O)Nc1ccccn1 (stereo not drawn) | inconclusive: 31.6 µM [inhibitor, full curve, poor fit] | 
50 | C=CCn1c(C)cc(C(=O)CSc2nnc(C3CC3)n2C2CC2)c1C | inconclusive: 89.1 µM [inhibitor, single point] | 
51 | Cc1nc(C(Cl)(Cl)Cl)nc2[nH]ccc(=O)c12 | inconclusive: 17.8 µM [inhibitor, full curve, poor fit] | 
52 | O=C(Nc1nc2ccccc2s1)C1CCCO1 (stereo not drawn) |  | inactive: -10.1%
53 | COC(=O)c1ccc(-c2ccc(OC)c(C3C4C=CCC(C)C4C(=O)N3Cc3ccccc3)c2)cc1 (stereo not drawn) |  | inactive: -5.3%
54 | Cc1cccc(OCc2cc(=O)n3c(-c4ccccc4)csc3n2)c1C |  | inactive: -15.9%
55 | Cc1ccc2nc(Cl)c(/C=C/C(=O)c3ccco3)cc2c1 | inconclusive: 79.4 µM [inhibitor, partial curve, poor fit] | 
56 | Cc1ccc(NC(=O)Cn2nc(C)c3nn(-c4ccc(Cl)cc4)c(C)c3c2=O)cc1C |  | inactive: -3.2%
57 | CC(C)C[C@@H](CN1CCCC1CN1C(=S)NC[C@@H]1Cc1ccc(O)cc1)N1C[C@H](Cc2ccc(O)cc2)N(CC2CCCCC2)C1=S (stereo partly drawn) |  | inactive: -12.5%
58 | CC1=C/C(=N\OS(=O)(=O)c2ccccc2)C(C)=CC1=O | inconclusive: 50.1 µM [inhibitor, partial curve, poor fit] | 
59 | O=C1O/C(=C/Br)CCC1c1cccc2ccccc12 (stereo not drawn) | active: 9.47 µM | 
60 | Cc1sc2nc(CSCC(=O)NC3CCCCC3)[nH]c(=O)c2c1C | inconclusive: 50.1 µM [inhibitor, partial curve, poor fit] | 
61 | Cc1ccc(C(=O)CSc2nc(C)cc(=O)[nH]2)cc1 | inconclusive: 79.4 µM [inhibitor, partial curve, poor fit] | 
62 | Nc1ccc2nc(-c3cccnc3)[nH]c2c1 | inconclusive: 89.1 µM [inhibitor, partial curve, poor fit] | 
63 | CCc1nnc(NC(=O)c2nc(S(=O)(=O)Cc3cccc(C)c3)ncc2Cl)s1 | inactive and inconclusive: 22.4 µM [inhibitor, full curve, poor fit] | 
64 | Cc1ccc(C(C(=O)NC2CCCC2)N(Cc2ccc(F)cc2)C(=O)c2csnn2)o1 (stereo not drawn) |  | inactive: 6.9%
65 | COc1cc(NC(=O)CN2CCN(c3ccccc3F)CC2)c(C)cc1[N+](=O)[O-] |  | inactive: 11.1% [at 11.4 µM]
66 | NC(=O)c1cccc(NC(=O)Nc2ccc(Cl)cc2)c1 | inconclusive: 89.1 µM [inhibitor, single point] | 
67 | O=C(Nc1ccc(N2CCOCC2)cc1)Nc1cnsn1 | inconclusive: 70.8 µM [inhibitor, partial curve, poor fit] | 
68 | CC1(C)CC(=O)C2=C(C1)OC1=C(C(=O)CC(C)(C)C1)C2c1ccc(O)cc1O | inconclusive: 44.7 µM [inhibitor, partial curve, poor fit] | 
